From article PMC5892938
Some of the results follow. At the low end of the ranking the order means little.

The sequences below were run against GST-SBP-SLBP (stem-loop binding protein) (UniProt Q14493) (assay: targeted RNA Bind-n-Seq). Details: RBNS binding buffer: 25 mM Tris pH 7.5, 150 mM KCl, 3 mM MgCl2, 0.1% Tween, 0.5 mg/mL BSA, 1 mM DTT; 27 nM protein, 750 pM RNA pool; temperature not stated; high values mean tight binding.
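Note: DESeq read counts versus GST-SBP nonspecific binding control pulldown.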

Sequence	binding signal (log2 fold change)
GGUCACGUCUCAAUCAACUCAACUCCAGGAGUUUCCUCCUGCUAACUCAACAGCUCGCAGUCAAG	0.0626
GGUCACGUCUCAAUCAACUCUAUCCCCAGGGAAAACCCUGGUAAAUUCAACAGCUCGCAGUCAAG	0.172
GGUCACGUCUCAAUCAACUCAUUUCCAGGAGUUUACUCCUGCUUUUUCAACAGCUCGCAGUCAAG	0.0701
GGUCACGUCUCAAUCAACUCAUUCGCAGGAGUUUUCUCCUGGUUUCUCAACAGCUCGCAGUCAAG	-0.0566
GGUCACGUCUCAAUCAACUCAAUCUCAGGAGUUUCCUCCUGCAAAGUCAACAGCUCGCAGUCAAG	-0.0266
GGUCACGUCUCAAUCAACUCUAUCUCCAGGGAAAGCCCUGGCUUACUCAACAGCUCGCAGUCAAG	0.329
GGUCACGUCUCAAUCAACUCAUCCUCCAGGGAAACCCCUGGUUUAUUCAACAGCUCGCAGUCAAG	0.0497
GGUCACGUCUCAAUCAACUCAGUCCCAGGAGUUUUCUCCUGCAUUUUCAACAGCUCGCAGUCAAG	0.0126
GGUCACGUCUCAAUCAACUCAUCUUCCAGGGAAACCCCUGGCAAUCUCAACAGCUCGCAGUCAAG	-0.0773
GGUCACGUCUCAAUCAACUCUUCGUCCAGGGAAAACCCUGGUUAUUUCAACAGCUCGCAGUCAAG	-0.166
GGUCACGUCUCAAUCAACUCGUUUUCAGGAGUUUUCUCCUGCAUUUUCAACAGCUCGCAGUCAAG	0.0149
GGUCACGUCUCAAUCAACUCAAUCUCAGGAGUUUUCUCCUGCUAACUCAACAGCUCGCAGUCAAG	0.0306
GGUCACGUCUCAAUCAACUCUAUUCCCAGGGAAACCCCUGGCUAUCUCAACAGCUCGCAGUCAAG	-0.0563
GGUCACGUCUCAAUCAACUCAAUCCCCAGGGAAACCCCUGGUUAAUUCAACAGCUCGCAGUCAAG	0.0276
GGUCACGUCUCAAUCAACUCAUCCUCAGGAGUUUCCUCCUGUAAUCUCAACAGCUCGCAGUCAAG	-0.107
GGUCACGUCUCAAUCAACUCUAGUCCCAGGGAAAGCCCUGGCAAAUUCAACAGCUCGCAGUCAAG	0.297
GGUCACGUCUCAAUCAACUCUACUUCAGGAGUUUACUCCUGUAAUCUCAACAGCUCGCAGUCAAG	0.0643
GGUCACGUCUCAAUCAACUCAUGUCCAGGAGUUUACUCCUGUUUUCUCAACAGCUCGCAGUCAAG	0.0173
GGUCACGUCUCAAUCAACUCUUUUCCCAGGGAAAGCCCUGGUUAACUCAACAGCUCGCAGUCAAG	0.124
GGUCACGUCUCAAUCAACUCUUUUCCCAGGGAAACCCCUGGCUUUCUCAACAGCUCGCAGUCAAG	0.149
GGUCACGUCUCAAUCAACUCUUCCCCCAGGGAAACCCCUGGUUAUGUCAACAGCUCGCAGUCAAG	0.21
GGUCACGUCUCAAUCAACUCCCACGAGGGGGGGAAAACCCCUUUACCCUCACUCUCAACAGCUCGCAGUCAAG	-0.21
GGUCACGUCUCAAUCAACUCUUCCUCAGGAGUUUACUCCUGCUAAUUCAACAGCUCGCAGUCAAG	-0.0839
GGUCACGUCUCAAUCAACUCUUCUUCAGGAGUUUCCUCCUGCUAAUUCAACAGCUCGCAGUCAAG	0.0448
GGUCACGUCUCAAUCAACUCUCAAGAGGGGGGGAAAACCCCUUUGCCCUCAUUUUCAACAGCUCGCAGUCAAG	0.224

Sequence	binding signal (log2 fold change)
GGUCACGUCUCAAUCAACUCAUCUUCCAGGGAAACCCCUGGCUAUUUCAACAGCUCGCAGUCAAG	0.197
GGUCACGUCUCAAUCAACUCCUAAGAGGGGGGGAAAACCCCUUUACCCUCAUCUUCAACAGCUCGCAGUCAAG	0.0611
GGUCACGUCUCAAUCAACUCAACUUCCAGGGAAAGCCCUGGUUAUCUCAACAGCUCGCAGUCAAG	-0.0842
GGUCACGUCUCAAUCAACUCAUUUUCCAGGGAAACCCCUGGUUUUCUCAACAGCUCGCAGUCAAG	-0.0737
GGUCACGUCUCAAUCAACUCCUUAGAGGGGGGGAAAACCCCUUUACCCUCCAAAUCAACAGCUCGCAGUCAAG	0.279
GGUCACGUCUCAAUCAACUCUAUUUCAGGAGUUUUCUCCUGUUUUGUCAACAGCUCGCAGUCAAG	0.108
GGUCACGUCUCAAUCAACUCUUCCGCAGGAGUUUACUCCUGGUAUCUCAACAGCUCGCAGUCAAG	-0.0247
GGUCACGUCUCAAUCAACUCUUUCUCAGGAGUUUACUCCUGUUAUGUCAACAGCUCGCAGUCAAG	0.0149
GGUCACGUCUCAAUCAACUCUUCCGAGGGGGGGAAAACCCCUUUACCCUCACAAUCAACAGCUCGCAGUCAAG	0.125
GGUCACGUCUCAAUCAACUCUUCUUCCAGGGAAAACCCUGGCAAAUUCAACAGCUCGCAGUCAAG	0.272
GGUCACGUCUCAAUCAACUCAUCAGAGGGGGGGAAAACCCCUUUACCCUCAACAUCAACAGCUCGCAGUCAAG	0.276
GGUCACGUCUCAAUCAACUCUCAAGAGGGGGGGAAAACCCCUUUACCCUCAAUCUCAACAGCUCGCAGUCAAG	0.197
GGUCACGUCUCAAUCAACUCAUCUUCCAGGGAAAACCCUGGCAAUCUCAACAGCUCGCAGUCAAG	0.0651
GGUCACGUCUCAAUCAACUCAACUCCCAGGGAAACCCCUGGCUAAUUCAACAGCUCGCAGUCAAG	-0.104
GGUCACGUCUCAAUCAACUCAACUCCAGGAGUUUACUCCUGCUAUGUCAACAGCUCGCAGUCAAG	-0.0985
GGUCACGUCUCAAUCAACUCUUCGGAGGGGGGGAAAACCCCUUUACCCUCAACUUCAACAGCUCGCAGUCAAG	0.237
GGUCACGUCUCAAUCAACUCAUCUUCAGGAGUUUCCUCCUGUAAUCUCAACAGCUCGCAGUCAAG	0.114
GGUCACGUCUCAAUCAACUCUUCCUCAGGAGUUUCCUCCUGCUUUCUCAACAGCUCGCAGUCAAG	-0.086
GGUCACGUCUCAAUCAACUCAACUUCCAGGGAAACCCCUGGCAAACUCAACAGCUCGCAGUCAAG	-0.066
GGUCACGUCUCAAUCAACUCAAUUCCCAGGGAAAGCCCUGGUUUACUCAACAGCUCGCAGUCAAG	-0.096
GGUCACGUCUCAAUCAACUCAUUCCCAGGAGUUUACUCCUGCAAAUUCAACAGCUCGCAGUCAAG	0.114
GGUCACGUCUCAAUCAACUCUUUUCCAGGAGUUUACUCCUGUAUAUUCAACAGCUCGCAGUCAAG	0.218
GGUCACGUCUCAAUCAACUCAUCCUCAGGAGUUUUCUCCUGCUUACUCAACAGCUCGCAGUCAAG	0.178
GGUCACGUCUCAAUCAACUCAUUCCCCAGGGAAAUCCCUGGUAUUUUCAACAGCUCGCAGUCAAG	0.281
GGUCACGUCUCAAUCAACUCAUCGCCAGGAGUUUCCUCCUGCAUAUUCAACAGCUCGCAGUCAAG	0.084

Sequence	binding signal (log2 fold change)
GGUCACGUCUCAAUCAACUCAACUCCCAGGGAAACCCCUGGCUUAUUCAACAGCUCGCAGUCAAG	0.0582
GGUCACGUCUCAAUCAACUCAUCGUCCAGGGAAAUCCCUGGCUUUUUCAACAGCUCGCAGUCAAG	0.0215
GGUCACGUCUCAAUCAACUCAAUUUCAGGAGUUUUCUCCUGUAUUCUCAACAGCUCGCAGUCAAG	0.0556
GGUCACGUCUCAAUCAACUCAAUUUCAGGAGUUUCCUCCUGUUUUUUCAACAGCUCGCAGUCAAG	-0.149
GGUCACGUCUCAAUCAACUCCAUCGAGGGGGGGAAAACCCCUUUACCCUCACUAUCAACAGCUCGCAGUCAAG	-0.00327
GGUCACGUCUCAAUCAACUCUUACGAGGGGGGGAAAACCCCUUUACCCUCAAUGUCAACAGCUCGCAGUCAAG	-0.0629
GGUCACGUCUCAAUCAACUCUUUUUCAGGAGUUUUCUCCUGCUAUGUCAACAGCUCGCAGUCAAG	0.0978
GGUCACGUCUCAAUCAACUCUUUUUCCAGGGAAAUCCCUGGUUUAUUCAACAGCUCGCAGUCAAG	0.00346
GGUCACGUCUCAAUCAACUCAACUUCAGGAGUUUUCUCCUGUAAUCUCAACAGCUCGCAGUCAAG	-0.00487
GGUCACGUCUCAAUCAACUCCCUAGAGGGGGGGAAAACCCCUUUACCCUCAUUAUCAACAGCUCGCAGUCAAG	0.149
GGUCACGUCUCAAUCAACUCAAUUCCCAGGGAAAGCCCUGGCUAACUCAACAGCUCGCAGUCAAG	0.171
GGUCACGUCUCAAUCAACUCAGUCUCAGGAGUUUUCUCCUGUUAAUUCAACAGCUCGCAGUCAAG	-0.182
GGUCACGUCUCAAUCAACUCAUCCGAGGGGGGGAAAACCCCUUUACCCUCAAAAUCAACAGCUCGCAGUCAAG	-0.565
GGUCACGUCUCAAUCAACUCAAGUCCAGGAGUUUACUCCUGCAAUUUCAACAGCUCGCAGUCAAG	-0.0389
GGUCACGUCUCAAUCAACUCGUCUUCAGGAGUUUACUCCUGCUAUUUCAACAGCUCGCAGUCAAG	0.0978
GGUCACGUCUCAAUCAACUCUUCCUCCAGGGAAACCCCUGGCAAUGUCAACAGCUCGCAGUCAAG	-0.0302
GGUCACGUCUCAAUCAACUCAACUUCCAGGGAAAGCCCUGGUUUUCUCAACAGCUCGCAGUCAAG	0.0773
GGUCACGUCUCAAUCAACUCAACUUCAGGAGUUUCCUCCUGUUUACUCAACAGCUCGCAGUCAAG	-0.11
GGUCACGUCUCAAUCAACUCUUUCCCCAGGGAAAACCCUGGUAAAUUCAACAGCUCGCAGUCAAG	-0.0354
GGUCACGUCUCAAUCAACUCUUCUUCCAGGGAAACCCCUGGCUAUUUCAACAGCUCGCAGUCAAG	-0.0156
GGUCACGUCUCAAUCAACUCAUCCCCAGGAGUUUACUCCUGUAAAGUCAACAGCUCGCAGUCAAG	0.128
GGUCACGUCUCAAUCAACUCUUCCCCAGGAGUUUUCUCCUGUAAUCUCAACAGCUCGCAGUCAAG	0.0884
GGUCACGUCUCAAUCAACUCUAUCUCCAGGGAAACCCCUGGCUUACUCAACAGCUCGCAGUCAAG	-0.0131
GGUCACGUCUCAAUCAACUCUUCCUCCAGGGAAAUCCCUGGCUUUUUCAACAGCUCGCAGUCAAG	-0.188
GGUCACGUCUCAAUCAACUCUUUCUCCAGGGAAACCCCUGGUUAACUCAACAGCUCGCAGUCAAG	0.223
